As a reminder, the GI50 is the concentration at which growth is held to half of that of the control.

SMILES strings stand for the structures. Several values for one entry are separate records, joined by “and”; a condition that tells them apart may be missing. Equal entries are not always repeated.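 48-hour exposure; five concentrations; linearly interpolated endpoints. Here, GI50 denotes the concentration required for 50% inhibition of growth.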 Activity calls are given as the source filed them. No stated cut-off is given here; in the data, active = GI50 up to about 1.1 µM and inactive = higher. Bounds are passed on as bounds.

The experiment deals with NCI-H322M. The experiment can be described thus: DTP human tumour cell line panel, 48 h.
As for `CN(C)c1ccc(/N=N\c2cccc3ccoc23)cc1`, the GI50 is inactive: > 100 µM.
As for `CCc1nc2ccc(NCCN(C)C)c3c(=O)c4ccccc4n1c23`, the figure is active: 0.845 µM; as for `O=C(O)c1ccc(Cc2ccccc2C(=O)O)cc1`, inactive: > 100 µM.
Consider `COc1ccc2nc(-c3ccc(O)cc3)cc(O)c2c1`, for which the GI50 is inactive: 1.6 µM.
For `Fc1c(F)c(C(F)(F)F)c(F)c(F)c1N/N=C/c1cn(Cc2ccccc2)c2ccccc12` the value was inactive: 21.4 µM; for `COc1ccc(CCCCNCc2cccc(CNCCCCc3ccc(OC)cc3)c2)cc1`, inactive: 1.84 µM; for `CC(=O)Nc1ccc(-c2nnc(SCC(=O)Nc3ccccc3C)o2)cc1`, inactive: > 100 µM.
With `O=C(c1ccccc1)N1N=C(C(F)(F)F)CC1(O)C(F)(F)F` (stereo not drawn), the GI50 is inactive: > 100 µM.
As for `CC(C)(CCC(C)(C)N1OC1c1ccccc1)N1OC1c1ccccc1` (stereo not drawn), the figure is inactive: 31.5 µM; as for `O=C1N(Cc2ccccc2)C2CSCC2N1Cc1ccccc1` (stereo not drawn), inactive: 57.1 µM.
Regarding `Cc1ccc(C(=O)O)c(/C=C2\Cc3cc(C)cc(C)c3C2=O)c1`, the GI50 is inactive: > 100 µM.
Take `CCOC(=O)NC(=O)c1cn(-c2ccc(CCOC(=O)CCCCCCCCC(=O)OCCc3ccc(-n4cc(C(=O)NC(=O)OCC)c(=O)[nH]c4=O)cc3)cc2)c(=O)[nH]c1=O`: the GI50 is inactive: 90.2 µM.
Take `CC1OC(OC2C(OC(=O)[C@]34CCC(C)(C)C[C@H]3C3=CC[C@@H]5[C@@]6(C)CC[C@H](OC7OC(C(=O)O)C(O)C(O)C7O)C(C)(C)[C@@H]6CC[C@@]5(C)[C@]3(C)C[C@H]4O)OCC(O)C2O)C(O)C(O)C1OC1OCC(OC2OCC(O)C(O)C2O)C(O)C1O` (stereo partly drawn): the GI50 is inactive: 2.74 µM.
For `CCOC(=O)CCC(NC(=O)c1ccc(/N=C/c2nc3ccccc3nc2-c2ccccc2)cc1)C(=O)OCC` (stereo not drawn) the value was inactive: > 100 µM.
As for `Cc1ccccc1NC(=O)Cc1csc2[n+]1C(=O)/C(=C/c1ccc([N+](=O)[O-])cc1)S2`, the figure is inactive: 43.4 µM.
As for `Cc1cc(S(=O)(=O)[N-]/C(=N/S(=O)(=O)c2ccc(Cl)cc2)[n+]2ccc(N(C)C)cc2)c(SCC(=O)O)cc1Cl`, the figure is inactive: 31.6 µM.
In the case of `CC(C)(C)C(=O)C(C(=O)C(C)(C)C)C(=O)C(C)(C)C`, the GI50 is inactive: > 100 µM.
Take `Cc1ccc(-n2cc(/C(N)=N/O)c3ccccc3c2=O)cc1`: the GI50 is inactive: > 100 µM.
For `COC(=O)c1sc(=S)sc1SCc1ccc(CSc2sc(=S)sc2C(=O)OC)cc1` the value was inactive: > 100 µM; for `CCOC(=O)/C(C[C@H]1OC(C)(C)O[C@@H]1[C@H]1COC(C)(C)O1)=N/O`, inactive: > 100 µM; for `O=C1CC23CC(=O)CC2(C1)c1ccccc1C3=O` (stereo not drawn), inactive: > 100 µM.
In the case of `Cc1c(C(Cc2ccccc2N(C)C(=O)/C=C\C(=O)O)c2c[nH]c3ccccc23)c2ccccc2n1C` (stereo not drawn), the GI50 was inactive: 16.3 µM.
In the case of `CCCOC(=O)c1cc(C(=CCC[C@H]2CC[C@@]3(C)[C@@H](CC[C@@H]4[C@@H]3CC[C@]3(C)[C@@H](C(C)CCCC(C)C)CC[C@@H]43)C2)c2cc(Cl)c(O)c(C(=O)OCCC)c2)cc(Cl)c1O` (stereo partly drawn), the GI50 was inactive: > 50 µM.
For `CCN(CCO)CC1COc2ccccc2O1` (stereo not drawn) the value was inactive: > 100 µM.
As to `COc1ccc(/C=N/C23CC4CC(CC(C4)C2)C3)cc1`, the GI50 was inactive: > 100 µM.
For `CCCc1nc(Cl)c(Cl)c(Cl)n1` the value was inactive: 2.64 µM; for `O=C(NC1=C(Cl)C(=O)c2ccccc2C1=O)C(=O)C(C(=O)c1ccc2ccccc2c1)C1OC(=O)c2ccccc21` (stereo not drawn), inactive: 3.07 µM; for `O=C(CN1CCOCC1)c1ccc2c(c1)oc(=O)n2CCN1CCOCC1`, inactive: > 100 µM.
As for `CCOC(=O)C(NCc1cccc(C(F)(F)F)c1)(NC(=O)CC)C(F)(F)F` (stereo not drawn), the figure is inactive: > 100 µM.
For `CC(=C(c1ccccc1)c1ccccc1)N1C(=O)CC(=O)N1C` the value was inactive: > 100 µM.
On to `CC1=N[C@](C)(C2CC3C=CC2C3=O)COC1=O` (stereo partly drawn), for which the GI50 was inactive: > 100 µM.
As for `COc1cc(/C=C2/C(=O)N(C(=O)OC(C)C)C(Cc3cc(OC)c(OC)c(C)c3OC)C(=O)N2Cc2ccccc2)c(OC)c(C)c1OC` (stereo not drawn), the figure is inactive: 38.4 µM.
As for `COc1ccc(-c2c(C#N)c(N)n(C3OCC(OC(C)=O)C(OC(C)=O)C3OC(C)=O)c(=S)c2C#N)cc1` (stereo not drawn), the GI50 is inactive: 47.9 µM and inactive: 76.4 µM.
For `N#Cc1c(N2CCC(O)C2)c2ccccc2n2c1nc1ccccc12` (stereo not drawn) the value was inactive: > 100 µM.
On to `Cc1nc2c(C)ccc([N+](=O)[O-])c2c(NCCCN(C)C)c1C`, for which the GI50 was inactive: > 60.3 µM.
Turning to `CCc1ccccc1NC(=O)C(=O)CC(=O)c1sc(Nc2ccccc2)nc1C`, the GI50 was inactive: > 100 µM.
`C=C1c2nc3ccccc3n2C=C(c2ccc(Cl)cc2)N1c1ccccc1`: the GI50 was inactive: 20 µM.
Take `O=C(CSCC(=O)N/N=C\c1ccc(O)c(O)c1O)N/N=C\c1ccc(O)c(O)c1O`: the GI50 is inactive: 23.7 µM.
Take `O=S1(=O)C(c2ccccc2)=C(O)c2ccccc21`: the GI50 is inactive: > 100 µM.
As for `CN(C)c1cc[n+](-c2nc([N-]C(=O)C(F)(F)F)nc3c2ncn3C2CC(O)C(CO)O2)cc1` (stereo not drawn), the figure is inactive: > 100 µM; as for `Nc1nc(N)c2cc(-c3ccccc3)cnc2n1`, inactive: 19.7 µM; as for `CCOC(=O)NC(=O)c1cn(CCCOC(=O)CCCCCCCCCCC(=O)OCCCn2cc(C(=O)NC(=O)OCC)c(=O)n(C)c2=O)c(=O)n(C)c1=O`, inactive: > 100 µM.
For `O=c1cc(-c2cccnc2)[nH]c2cc3c(cc12)OCO3` the value was inactive: 6.58 µM.
Consider `CC(C)(C)n1c(=O)[nH]n(C2NN=Cc3cccc4cccc2c34)c1=O` (stereo not drawn), for which the GI50 was inactive: 40.8 µM.
`CC1=NN(C(=O)CC(=O)Nc2ccccc2)C(=O)C1/N=N/c1ccc(S(N)(=O)=O)cc1` (stereo not drawn): the GI50 is inactive: > 100 µM.
As to `CCOC(=O)Nc1cc2ccccc2c(/N=N/c2ccccc2)c1O`, the GI50 was inactive: > 100 µM.
For `Clc1ccc(C(Cc2cccc(Cl)c2)c2c(Cl)nc(N3CCNCC3)nc2Cl)cc1` (stereo not drawn) the value was inactive: 16.8 µM; for `CCOC(=O)NC(=O)c1cn(CCCOC(=O)NCCCCCCNC(=O)OCCCn2c(=O)c(C(=O)NC(=O)OCC)cn(C)c2=O)c(=O)n(C)c1=O`, inactive: > 100 µM.
As for `Cc1ccc(S(=O)(=O)c2c3nc4ccccc4nc3n3c2[nH]c2ccccc23)cc1`, the figure is inactive: 70 µM; as for `CCCCCCC(=O)OC[n+]1cccc(-c2c(COC(=O)NC(C)C)c(COC(=O)NC(C)C)c3n2CCC3)c1`, inactive: > 78.2 µM; as for `COc1ccc(C(=C(Cl)c2ccccc2)c2ccc(OC)cc2)cc1`, inactive: > 100 µM.
For `O=C1CC=C2C3CC4N(CCC45c4ccccc4N1C25)C/C3=C\CO` (stereo not drawn) the value was inactive: > 100 µM.
Turning to `COc1ccc(OCc2nc3cc(C(F)(F)F)ccc3nc2-c2ccccc2)cc1`, the GI50 was inactive: > 100 µM.
For the molecule `CC(Cn1c2c3ccccc3ccc2c2oc(=O)c3ccccc3c21)N(C)C` (stereo not drawn), the GI50 is inactive: > 100 µM.
As to `Cc1cc2occ(C)c(=O)c2c2c1OC(C)(C)S2`, the GI50 was inactive: > 100 µM.
As for `[O-][n+]1onc2c1/C(=N/O)CCC2`, the figure is inactive: > 100 µM; as for `C=CCNC(=S)N/C=C(\C#N)C(N)=O`, inactive: > 100 µM.
Consider `Cc1nc(N)c(N2CCN(S(=O)(=O)N(Cc3ccccc3)Cc3ccccc3)CC2)c(O)n1`, for which the GI50 is inactive: 25.4 µM.
As for `CN1CCCN(C)CCCN(C)CCCN(C)CCC1`, the GI50 is inactive: > 100 µM.
For `O=C1CC2OCC=C3CN4CCC5(C(=O)O)C(N1)C2C3CC45` (stereo not drawn) the value was inactive: > 100 µM; for `N#C/N=C(/N)NCc1ccccc1`, inactive: > 100 µM; for `c1ccc2c(c1)sc1c3cnccc3ccc21`, inactive: > 100 µM.
In the case of `O=C(O)CCCc1ccc2c(c1)C(C(=O)O)CC2` (stereo not drawn), the GI50 is inactive: > 100 µM.
As for `COc1ccc(/C=C\c2cc(OC)c(OC)c(OC)c2)cc1OC(=O)NCCN(C)C`, the figure is active: 0.000412 µM; as for `COc1cc(-c2cc(CCC(=O)Nc3ccccc3[N+](=O)[O-])n(-c3ccc([N+](=O)[O-])cc3[N+](=O)[O-])n2)ccc1O`, inactive: > 10 µM; as for `COc1c(OC(C)C)c(OC(C)C)c2oc(=O)n3c2c1C(c1ccccc1-n1c(C)ccc1C)C=C3` (stereo not drawn), inactive: 23.9 µM.
As for `CN(C)c1ccc(C(C=C2c3ccccc3Sc3ccccc32)=C(C#N)C#N)cc1`, the figure is inactive: 82.4 µM; as for `CN(C(=O)C12C3C4C1C1C2C3C41C(N)=O)C(C)(C)C` (stereo not drawn), inactive: > 100 µM.
Take `Cc1ccc(S(=O)(=O)N2CCCCN(S(=O)(=O)c3ccc(C)cc3)Cc3ccccc3OCCOCCOc3c4cccc3Cc3cccc5c3OCCOCCOc3ccccc3CN(S(=O)(=O)c3ccc(C)cc3)CCCN(S(=O)(=O)c3ccc(C)cc3)Cc3ccccc3OCCOCCOc3c(cccc3C4)Cc3cccc(c3OCCOCCOc3ccccc3C2)C5)cc1`: the GI50 is inactive: > 100 µM.
As for `O=C(O)c1ccc(Nc2c3ccccc3nc3ccccc23)cc1`, the figure is inactive: > 100 µM; as for `O=C(O)Cn1ccc(=O)c2ccc([N+](=O)[O-])cc21`, inactive: > 100 µM.
For `COc1ccc2c(c1)CC1C3(CCCCC23)CC[N+]1(C)C` (stereo not drawn) the value was inactive: > 100 µM; for `CC(=O)OC12c3ccccc3-c3ccccc3C1C1C(=O)N(C)C(=O)C12Cl` (stereo not drawn), inactive: > 10 µM.
As for `O=C(O)c1ccccc1C(=O)Nn1cnnc1`, the figure is inactive: > 100 µM.
As to `CC1CCCN(CP(=O)(c2ccccc2)c2ccccc2)C1` (stereo not drawn), the GI50 was inactive: > 100 µM.
As for `CNc1nc2c(C)ccc3nc(N(C)C)nc-3c2n1C`, the figure is inactive: > 10 µM; as for `Cc1ccc2c(O)cc(-c3cccc4ccccc34)nc2n1`, active: 0.0334 µM.
As for `COc1ccc(CNc2cc(OC)c(OC)c(OC)c2)cc1`, the figure is inactive: 5.53 µM.
